± gives the standard deviation of the averaged measurements. Some of the results follow.
These sequences were tested on PfAP2-LT AP2 domain (GST-tagged) (assay: gcPBM binding intensity (ln(normalized median fluorescence intensity)); higher = stronger DNA binding).
In short: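 The binding buffer was 1× PBS containing 1% milk, 0.2 mg/ml BSA, 0.5% salmon testes DNA and 0.03% Triton X-100. In it, GST-tagged P. falciparum DNA-binding domains expressed in E. coli were applied for 1 h to an Agilent 4 × 180k array of primer-extended double-stranded 36-bp intergenic genomic probes plus negative controls. Binding intensity, read with Alexa488 anti-GST antibody and a 488 nm scan, is the highest Masliner-normalised natural-log median intensity across replicate spots of either probe orientation.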

Row | Sequence | gcPBM binding intensity (ln)
1 | TATAAATACATACATACACACATATATATATATATT [CACACA_site6116] | 9.32 ± 0.25
2 | CAAGCACAGAAACACACACACACACCGACACAGACA [CACACA_site4359] | 10.1 ± 0.15
3 | AAAAAAAAAAAAAAAAGTACTAAATGTAAAAGAATA [XGTACX_site2164] | 8.73 ± 0.77
4 | AATGTATTAAAATTACGTACATATGCACATTTTATA [XGTACX_site5046] | 8.76 ± 0.44
5 | TTTTTTATTTTGTGCACACACATAAAAATATAAATA [CACACA_site6497] | 8.94 ± 0.35
6 | TACTCTTTCCAGAAGTGTACATAGAAATAATTACAT [XGTACX_site2668] | 8.57 ± 0.45
7 | AAAAAAAAAAAAAAAAAAATAAAAAATAAATAAATA [CACACA_negctrl_site1498] | 8.33 ± 0.71
8 | TATATATGTATGTATGCATGCCCTTTTTTAAAAAAA [TGCATGCA_site434] | 8.77 ± 0.43
9 | AAGAAAAAACAAACATGTACACATAATTTAGTTTTT [XGTACX_site3121] | 8.81 ± 0.48
10 | TTTTTTTTTTTTTTTTGTACATAATTATATATTTAC [XGTACX_site7540] | 8.66 ± 0.38
11 | TAGTATTATTATTATGCACACAAAAATATTTATACA [CACACA_site9219] | 8.81 ± 0.45
12 | AGCATTTCTTTTACATGTACATAATATTTTTAATAA [XGTACX_site1968] | 8.8 ± 0.41
13 | TTTTTTTTTACTTGTTGTACTTTTTCAAGGTATTGT [XGTACX_site7778] | 9.01 ± 0.5
14 | ATATAAAAAAATTGCACACATAAATAAATACAGATA [CACACA_site4806] | 9.13 ± 0.42
15 | TAAAAATTGAAGCACACACACAAAAGAAATACAATA [CACACA_site1113] | 9.71 ± 0.37
16 | ATATTTACAAGTAATAGTACAGTTAATTATATAAAA [XGTACX_site4856] | 8.55 ± 0.52
17 | ATTATATAGCTAAAAAAAATAAATTAAAAATATTAA [TGCATGCA_negctrl_site505] | 8.37 ± 0.45
18 | AAGAATGTTATTAGTACACACAATTATTATAGAAAT [CACACA_site7714] | 8.99 ± 0.42
19 | AATGTACAAATACGTACACACATATTTATATTTATA [CACACA_site6833] | 8.98 ± 0.43

Row | Sequence | gcPBM binding intensity (ln)
20 | TATATATATATATATACATGCATACATATACATACA [TGCATGCA_site897] | 9.65 ± 0.16
21 | ATATATATATATAATAAACACACAAATAGATATAAC [CACACA_site9234] | 9.26 ± 0.37
22 | CTACCTTTAATATATACACACACATAAAAAAAATAT [CACACA_site8548] | 9.38 ± 0.3
23 | AGATAAGATATATACACACACATAAATACGTACAAA [CACACA_site6639] | 9.62 ± 0.39
24 | AATGTACCCACACCCACACACAAACAAATATATATA [CACACA_site2751] | 9.74 ± 0.29
25 | AGATTAAAATATATACGTACATATTATTAATTAATA [XGTACX_site3487] | 8.6 ± 0.45
26 | ATAGGATGCATATGAGTGCATTCTGTGTTGTTATAA | 8.77 ± 0.43
27 | AAACAATATTCTCAAGTGCAAAAAGAAAAAAGAAAT | 9.01 ± 0.5
28 | TACTTGTTATTAACATGTACAAAAAAAAAAAAAATT [XGTACX_site1338] | 8.46 ± 0.42
29 | TTTATTTTTATTTAAAGTACATATCCATTTATTCCT [XGTACX_site1914] | 8.49 ± 0.53
30 | ACCCATATAATATATACACACATATATATATATATA [CACACA_site4731] | 9.855 ± 0.035
31 | ATTTTCTTATATATATTTTGTATATATTTTGTACAT [CACACA_negctrl_site1496] | 9.21 ± 0.49
32 | AAAAAAAAAATTAAATGTACACACACCTTAAACAAT [XGTACX_site3848] | 9.3 ± 0.28
33 | TAATGTATTATATTTTGTTTTCTTCCACCAAAAAAA [XGTACX_negctrl_site64] | 8.22 ± 0.43
34 | AATTCGTACCTCATTTGTACATATATATATATATAT [XGTACX_site5513] | 9.56 ± 0.23
35 | TTTTTTATAGTACATTACCAAAAAAAAAAAAAAAAA [GTGCAC_negctrl_site549] | 7.97 ± 0.51
36 | CATACACCCATACATACACACATACAGATATATATA [CACACA_site5123] | 9.29 ± 0.33
37 | ATATATTGCACTTTTTGTACATAATGAAAAATTTTT [XGTACX_site8223] | 8.62 ± 0.43
38 | TACATATTGATATATACACACAAAAAAATAAATTCT [CACACA_site6198] | 8.97 ± 0.37

Row | Sequence | gcPBM binding intensity (ln)
39 | ACCTTAATAAAAAAAAGTACAAACATGTTCAAATTG [XGTACX_site1556] | 8.73 ± 0.5
40 | ATCTCTGTATGTTAGACACACATATTTTAATATGTT [CACACA_site4244] | 9.02 ± 0.42
41 | TAAAATTTGTACATAGTGCAATTTTTTTTTTTTTTT | 8.4 ± 0.35
42 | TCACCATATAAACGTGCACACTACAAAAATATATAA [CACACA_site5413] | 8.88 ± 0.45
43 | CTTTTATTTTATTTTAGTACGCAACATTCTCTATAT [XGTACX_site7279] | 8.86 ± 0.54
44 | TATTTATTTAAAAATTGTACGTAGGATTATACACTT [XGTACX_site286] | 8.58 ± 0.51
45 | ATATAAATATTATAATGTACATATAATATATTTATT [XGTACX_site5212] | 8.6 ± 0.37
46 | AGTGATTATTAATAATGTACATATCTATAAATATAT [XGTACX_site4734] | 8.7 ± 0.49
47 | TTTTTTTTTTTTTTCTTACAATTTATTGAACAAATG [XGTACX_negctrl_site515] | 8.34 ± 0.4
48 | TAGTTTTTTATATATTGTACAAATAATATATGATAT [XGTACX_site4220] | 8.7 ± 0.39
49 | AATAAATAAATATATATATATATATATATATATATA [CACACA_negctrl_site365] | 9.67 ± 0.28
50 | TATCAAAATTGTAATTGTACTTGTAAGTGGATATAT [XGTACX_site5949] | 8.66 ± 0.42
51 | ACAATTTACACTTAAACACACAAAAAAAAGTTATAT [CACACA_site7056] | 8.9 ± 0.38
52 | TATATATTTCATCCTTGTACACATTTGTGTTTACAT [XGTACX_site1132] | 9.23 ± 0.52
53 | GTATTGCATGAGGACACACACAAAAAAAATATAGAT [CACACA_site6500] | 9.45 ± 0.47
54 | TTATAAAATATTTATGCATGTGAAGAATATTATAAA [TGCATGCA_site1047] | 8.48 ± 0.35
55 | GAAAAAAGTATCAAGGTGCGTATATACATCAAAATA | 9.02 ± 0.52
56 | AATAGTCGGGTGCATACACACCTTAAATATAATATA [CACACA_site8271] | 8.77 ± 0.55
57 | TTCTTACATGAGTGTACACACTTTTTTTCAGAAAAT [CACACA_site4215] | 8.88 ± 0.34
